# Several values for one entry are separate records, joined by “and”; a condition that tells them apart may be missing. Equal values may be shown once. In all, about 420,000 compounds went through this assay and about 64,000 (15%) were called active. This list was built around the results that the source calls inconclusive (neither active nor inactive); the mix of calls is not that of the screen. Calls follow the shape of the dose curve; as a rule, active = well fitted inhibition curve with a large enough effect; inconclusive = small, poorly fitted or top-dose-only effect; inactive = flat fitted curve, though single readings scatter. Potencies of inconclusive entries are left out as doubtful fits. The source holds several records for some structures; these can differ, active in one and inactive in another.
# Experiment: qHTS for Inhibitors of human tyrosyl-DNA phosphodiesterase 1 (TDP1): qHTS in cells in absence of CPT; also: nearly all actives have a fitted effect of over 55% in size
# Conditions: DT40 Tdp1-/- hTDP1 cells, no CPT, ATP luminescence, 48 h; activity change, negative = growth inhibition: at 46.2 µM (top of the series) unless noted
# In short: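 Camptothecin absent (DMSO only). Human TDP1-complemented DT40 knockout cells, 400 cells/well, 37 °C for minimum 48 hr; ATP measured via CellTiter-Glo, 30 min dark incubation, luminescence.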
# % is scaled to controls: 0 for no effect and ±100 for the full control effect; potency is read from the fitted curve at half-maximal effect; tags tell the direction and shape of the fitted curve.
Structure (SMILES),Potency,"activity change, negative = growth inhibition"
C=CCS/C(=N\n1cnc2ccccc2c1=O)N(CC)CC,active: 18.4 µM,–
COc1ccc(NS(=O)(=O)c2ccc(S(=O)(=O)N3CCCC3)cc2)cc1Cl,"inconclusive [inhibitor, single point]",–
COc1cccc(C(=O)n2nc(-c3cccnc3)nc2NCc2ccc(F)cc2)c1,"inconclusive [inhibitor, single point]",–
COc1cc(OC)c2c(-c3cccc(-c4ccc(OC(F)(F)F)cc4)c3)cc(=O)oc2c1,"inconclusive [inhibitor, single point]",–
COc1cccc(C(=O)N2CCC(n3nccc3NC(=O)CCOc3ccccc3)CC2)c1,"inconclusive [inhibitor, single point]",–
COC(=O)c1ccc(CNC(=O)c2ccc(S(=O)(=O)N(C)c3ccccc3OC)cc2)cc1,"inconclusive [inhibitor, single point]",–
CCOc1ccc(C(=O)Nc2cccc(-c3ccc4nncn4n3)c2)cc1,"inconclusive [inhibitor, partial curve, poor fit]",–
CCN(CC)c1ccc(/C=C/C(=O)c2cccnc2)cc1,active: 20.6 µM,–
COc1ccc(C2NC(=O)NC(C)=C2[N+](=O)[O-])cc1 (centres undefined),inactive,–
COc1cc2ccccc2cc1C(=O)Nc1ccc(S(=O)(=O)Nc2cc(C)on2)cc1,inactive,–
CCOC(=O)c1ccc(NC(=O)c2cc3c(s2)CCC3)cc1,–,inconclusive: -31.4% [inhibitor]
Cc1ccc(S(=O)(=O)N2[C@@H](c3ccccc3F)C(C(=O)O)=CC[C@H]2c2cccc(Cl)c2)cc1,inactive,–
CCN(CC)C(=O)c1ccc(COc2ccccc2Cl)o1,active: 16.4 µM,–
COc1cc2oc3ccc(C#Cc4ccccn4)cc3c(=O)c2cc1OC,active: 23.1 µM,–
COc1ccc(-c2nc(CN3CCC(c4ccccc4)CC3)c(C)o2)cc1OC,"inconclusive [inhibitor, single point]",–
CCCC(=O)Nc1ccc2nc(SCC(=O)Nc3ccc(N4CCOCC4)c(Cl)c3)sc2c1,active: 16.4 µM,–
COC(=O)c1ccc(NC(=O)CN(Cc2ccccc2)S(=O)(=O)c2ccc(Cl)cc2)cc1,"inconclusive [inhibitor, single point]",–
CC(=O)N1CCN(C(=O)COC(=O)/C=C/c2ccc(C(F)(F)F)cc2)CC1,"inconclusive [inhibitor, partial curve]",–
CNC(=O)c1c(NC(=O)c2ccc(S(=O)(=O)N(C)c3ccccc3)cc2)sc2c1CCN(C(C)C)C2,active: 18.4 µM,–
COc1ccc(C(O)(CCc2ccccc2)CCN2CCCCC2)cc1 (centres undefined),"inconclusive [inhibitor, single point]",–
O=C(CSc1cn(CCNC(=O)c2cccs2)c2ccccc12)NC1CCCCC1,"inconclusive [inhibitor, single point]",–
O=C(NCC1CCCO1)C1CC1(c1ccccc1)c1ccccc1 (centres undefined),"inconclusive [inhibitor, partial curve]",–
CCCn1c(-c2nonc2N)nc2ccccc21,"inconclusive [inhibitor, partial curve, poor fit]",–
O=C(Nc1cccc(OC(F)(F)F)c1)c1ccc(-c2cccnc2)c2ccoc12,"inconclusive [inhibitor, partial curve]",–
CCn1c(=S)sc2c(=O)n(-c3ccccc3)c(SC)nc21,"inconclusive [inhibitor, single point]",–

Structure (SMILES),Potency,"activity change, negative = growth inhibition"
CNCCC(Oc1ccccc1OC)c1ccccc1 (centres undefined),active: 23.1 µM,–
Oc1c(C(c2ccccc2F)N2CCCC2)sc2nc(-c3ccco3)nn12 (centres undefined),inactive,–
COc1cc(S(=O)(=O)Nc2ccc(C(=O)NCC(=O)O)cc2)ccc1NC(C)=O,inactive,–
CCn1nc(C)c(NC(=O)CCSc2nc(-c3ccco3)cc(C(F)(F)F)n2)c1C,"inconclusive [inhibitor, partial curve]",–
C/C(=N\NC(=S)NC(C)C)c1ccc(Cl)s1,active: 5.8 µM,–
Cc1c(Cl)cccc1NC(=O)Nc1ccc2snnc2c1,active: 18.4 µM,–
O=C1NN(c2ccccc2)C(=O)/C1=C/c1ccc(Sc2ccc(Cl)cc2)o1,active: 20.6 µM,–
CCNCC(=O)N1c2ccccc2CCc2ccc(NC(C)=O)cc21,inactive,–
O=C(CCc1ccccc1)N[C@@H]1c2ccccc2CC[C@H]1OCc1ccccc1,active: 11.6 µM,–
Cc1ccc(S(=O)(=O)N2CC(O)C[C@H]2C(=O)OCC(=O)N2CCN(c3ccc(F)cc3)CC2)cc1C (some centres undefined),active: 4.11 µM,–
CSc1nc(=O)[nH]nc1Sc1ccccc1,"inconclusive [inhibitor, single point]",–
CC(NC(=O)CCc1c[nH]c2ccccc12)c1ccccc1 (centres undefined),inactive,–
COc1c(C)cc(C(=O)C2CCCN(C(=O)c3ccoc3)C2)cc1C (centres undefined),"inconclusive [inhibitor, full curve]",–
CC(C)(CO)NCC(=O)Nc1cc(C(F)(F)F)cc(NC(=O)CNC(C)(C)CO)c1Cl,inactive,–
COc1ccc(CNCC(O)(c2ccc(Cl)cc2)c2ccc(Cl)cc2)cc1,active: 18.4 µM,–
CCc1ccc(N(CC)C(=O)Cn2cnc3sc(C)c(S(=O)(=O)N4CCN(c5ncccn5)CC4)c3c2=O)cc1,inactive,–
Cc1ccc(C)c(OCC(=O)N(Cc2nnc(-c3ccccc3Cl)o2)C2CC2)c1,"inconclusive [inhibitor, single point]",–
CCCC1=Nc2cc(C(=O)NCCOC)ccc2Sc2ccccc21,active: 0.58 µM,–
CCCOc1ccccc1C1C(C(=O)Nc2ccccc2)=C(C)Nc2nnnn21 (centres undefined),inactive,–
COc1ccc(C2CC(c3ccccc3OC(=O)/C=C/c3ccccc3)=NN2C(C)=O)cc1 (centres undefined),"inconclusive [inhibitor, single point]",–
COC(=O)CNC(c1ccccc1)c1cc(Br)ccc1NS(=O)(=O)c1ccc(C)cc1 (centres undefined),"inconclusive [inhibitor, single point]",–
CC1CNCCN1S(=O)(=O)c1cccc2cnccc12 (centres undefined),active: 23.1 µM and active: 14.6 µM,–
CC(C)NC(=O)c1cc(C2CCCCN2C(=O)c2ccc(C(C)C)cc2)on1 (centres undefined),"inconclusive [inhibitor, full curve, poor fit]",–
O=C1C(=O)c2c(ccc3ccccc23)-c2ccccc21,active: 0.517 µM,–
O=C(C[n+]1ccccc1)Nc1c(Cl)cc(Cl)cc1Cl,inactive,–

Structure (SMILES),Potency,"activity change, negative = growth inhibition"
O=C(Nc1nnc(C2CCCCC2)s1)c1ccc(Br)s1,"inconclusive [inhibitor, single point]",–
COc1ccc(OC)c(-c2csc(NC(=O)CSc3nnnn3C)n2)c1,inactive,–
CC1(C(=O)NC2CCN(Cc3ccccc3)CC2)CCN1Cc1ccc2ccccc2c1 (centres undefined),"inconclusive [inhibitor, single point]",–
O=C(N/N=C/c1cc(Br)ccc1O)c1ccncc1,active: 1.64 µM,–
COc1ccc(-c2nc(SCC(=O)NCCc3ccccc3)n[nH]2)cc1,"inconclusive [inhibitor, single point]",–
O=C(N1CCOCC1)C1(S(=O)(=O)c2ccccc2)CC=CC1,inactive,–
O=C(CCn1c(=O)sc2ccccc21)NCc1ccccc1,–,inconclusive: -5.82% [inhibitor]
O=C(NCCc1csc(-c2cccnc2)n1)c1cccs1,active: 20.6 µM,–
COc1ccc(/C=C(\NC(=O)c2cccs2)C(=O)NN)cc1OC,inactive,–
CCOC(=O)/C(C#N)=N/Nc1ccccc1C#N,active: 20.6 µM,–
COCc1cc(C)nc(OCC(=O)N/N=C/c2ccccc2O)c1C#N,"inconclusive [inhibitor, single point]",–
O=C(NCc1ccccc1Cl)c1nnc(Cc2ccc(Cl)cc2)o1,inactive,–
NS(=O)(=O)c1ccc(NNC(=O)c2ccccc2C(=O)O)cc1,inactive,–
Cc1cc(NC(=O)CC2Oc3ccccc3NC2=O)ccc1Br (centres undefined),"inconclusive [inhibitor, single point]",–
COc1cc(/C=c2/sc3nc(-c4ccccc4)c(-c4ccccc4)n3c2=O)cc(OC)c1OC,active: 10.3 µM,–
CC(CNc1ccc(Cl)cc1)(CNc1ccc(Cl)cc1)[N+](=O)[O-],"inconclusive [inhibitor, single point]",–
O=C(CSc1ncnc2sc3c(c12)CCCC3)NC1CCS(=O)(=O)C1 (centres undefined),"inconclusive [inhibitor, single point]",–
Cc1nc2ccc(S(=O)(=O)NC(C(=O)NCc3ccc4c(c3)OCO4)C(C)C)cc2s1 (centres undefined),"inconclusive [inhibitor, single point]",–
CCOc1ccc(C2CC(c3ccccc3C)n3ncnc3N2)cc1 (centres undefined),"inconclusive [inhibitor, full curve, poor fit]",–
N#C/C(=C\c1cc(Br)c(O)c(Br)c1)c1nc2ccccc2c(=O)[nH]1,"inconclusive [inhibitor, partial curve]",–
CCc1ccc(OCC(=O)Nc2ccc3c(c2)c2ccccc2n3CC)c(Br)c1,"inconclusive [inhibitor, single point]",–
Cc1ccc(Nc2nc(NCc3ccco3)nc3nccnc23)cc1,inactive,–
CCOc1ccc(NC(=O)C(C)n2c(=O)cc(C)c3c(C)nn(-c4ccccc4)c32)cc1 (centres undefined),"inconclusive [inhibitor, single point]",–
COc1cccc2cc(-c3nc4ccccc4[nH]3)c(=O)oc12,"inconclusive [inhibitor, single point]",–

# From PubChem BioAssay AID686978 (National Center for Advancing Translational Sciences (NCATS), 2013)
